Assay results from the supplement of paper PMC12645437, “Orthogonal IMiD-Degron Pairs Induce Selective Protein Degradation in Cells” (ACS Chemical Biology, 2025).
The list shows a part of the results.

Target: no compound (DMSO)
Assay: log2 fold change of degron read counts, EGFP-low vs EGFP+ sorted cells; higher = lower degron-EGFP level without compound (poor expression or instability)
Settings: compound: DMSO control; 18 h
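Also: jurkat cells carrying a lentiviral library of mutant zinc finger degrons fused to EGFP plus mCherry, mCherry+ cells FACS sorted, degron abundance counted by next-generation sequencing.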

Sequence	log2 fold change of degron read counts
FSCPICGAPFTQKGNLLRHIKL	0.617
FYCNQCGHHFTQKGNLLRHIKL	0.573
FACNICGAEFTQKGNLLRHIKL	-0.909
FDCEVCGALFTQKGNLLRHIKL	-0.0743
FWCPICGHIFTQKGNLLRHIKL	1.51
FLCNICGANFTQKGNLLRHIKL	-0.431
FMCEICGHMFTQKGNLLRHIKL	-1.05
LCCPICGFFCTQKGNLLRHIKL	1.77
FYCPICGHGFTQKGNLLRHIKL	-0.639
FFCEICGHCFTQKGNLLRHIKL	-0.443
FDCPICGHLFTQKGNLLRHIKL	-0.533
FDCEICGHSFTQKGNLLRHIKL	-1.4
FDCNICGALFTQKGNLLRHIKL	0.164
FGCPICGAWFTQKGNLLRHIKL	0.945
FHCEICGRRFTQKGNLLRHIKL	-0.672
FACPICGHYFTQKGNLLRHIKL	0.279

Sequence	log2 fold change of degron read counts
FYCNVCGAHFTQKGNLLRHIKL	-0.214
FECPQCGANFTQKGNLLRHIKL	-1.33
FWCNVCGAAFTQKGNLLRHIKL	0.0742
FRCPVCGAFFTQKGNLLRHIKL	0.832
LLCNQCGFCCTQKGNLLRHIKL	0.891
FGCSVCGHFFTQKGNLLRHIKL	1.09
FDCEQCGAIFTQKGNLLRHIKL	-0.723
FICNQCGHYFTQKGNLLRHIKL	0.582
FLCNQCGRTFTQKGNLLRHIKL	-1.4
FNCNQCGRCFTQKGNLLRHIKL	-0.102
FSCPQCGAYFTQKGNLLRHIKL	-0.633
FICEICGHIFTQKGNLLRHIKL	-0.306
LFCNQCGFHCTQKGNLLRHIKL	1.33
FYCNQCGAAFTQKGNLLRHIKL	-0.511
LQCEICGFICTQKGNLLRHIKL	-0.173
FQCNQCGHRFTQKGNLLRHIKL	-0.478
